# In all, about 39,000 compounds went through this assay and about 220 (0.56%) showed activity. This is one part of the list.
# System: Escherichia coli K-12 BW25113
# Assay: relative growth (OD600 normalised to plate interquartile mean) (fraction); higher = less growth inhibition, active = 0.2 or less
# Details: 50 µM; LB; incubation time: overnight (16-24 h)
# 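Further: static incubation at 37 °C against the wild-type strain, values averaged over two biological replicates.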
row,Compound,relative growth
1,CC(C)[C@@H]1NC[C@@H]2CCCN2C1=O,inactive: 0.992
2,N[C@@H](c1ccccc1)[C@@H](N)c1ccccc1,inactive: 0.986
3,Cc1ccc(CC2(N)CC2)cc1,inactive: 0.977
4,CN1CCCCC1c1ccc(-c2cccnc2)nc1.Cl (stereo unspecified),inactive: 0.864
5,C[C@@H]1CN([C@@H](C)CO)C(=O)CCCn2nncc2CO[C@H]1CN(C)C(=O)Oc1ccc2ccccc2c1,inactive: 0.968
6,CNCC(O)c1ccc(O)cc1 (stereo unspecified),inactive: 0.824
7,C#CCN(C)C(C)Cc1ccccc1.Cl (stereo unspecified),inactive: 1.01
8,COC(=O)[C@H]1[C@H]2CO[C@@H]1CN2,inactive: 0.993
9,CCn1cc2nc(N3CCNCC3)[nH]cc-2c1=O,inactive: 1.04
10,Cn1cc(C(=O)Nc2nn[nH]n2)c2ccccc21,inactive: 1.02
11,O=C(NC[C@@H]1CC[C@H]2NC[C@H]2O1)C1CCCC1,inactive: 1.03
12,O=C(NC(=O)c1ccccc1Cl)Nc1ccc(OC(F)(F)F)cc1,inactive: 1.1
13,COC(=O)[C@@]1(Cc2ccccc2CN=[N+]=[N-])N=C(c2ccc(OCCCO)cc2)O[C@H]1c1ccccc1CN=[N+]=[N-],inactive: 1.04
14,Cc1nc(-c2ccc(-c3ccc(C(=O)N4CCc5cc6c(cc54)C4(CCN(C)CC4)CO6)cc3)c(C)c2)no1,inactive: 0.932
15,COc1cc2c(cc1C=O)OCO2,inactive: 0.989
16,CC(=O)OCC1=C2C(=O)[O][Zn][O]C(=O)[C@@H](N)CCCC(=O)N[C@@H]3C(=O)N2[C@@H]3SC1,inactive: 1.06
17,C[C@@H](N)Cc1c[nH]c2ccc(O)cc12,inactive: 0.986
18,CNC(C)C(O)c1ccccc1.Cl (stereo unspecified),inactive: 1.14
19,COC(=O)C[C@@H]1CC[C@H]2NC[C@H](O)COC[C@@H]2O1,inactive: 1
20,CCC(=O)CCCCC[C@@H]1NC(=O)[C@H]2CCCCN2C(=O)[C@H]([C@H](C)CC)NC(=O)[C@H](Cc2cn(OC)c3ccccc23)NC1=O,inactive: 1
21,CC(NC(C)(C)C)C(=O)c1cccc(Cl)c1.Cl (stereo unspecified),inactive: 0.976
22,O=C(O)[C@H]1[C@H](C(=O)O)[C@H]2CC[C@@H]1O2,inactive: 1.01
23,C[C@@H]1CN([C@@H](C)CO)C(=O)c2c(c3ccccc3n2C)-c2ccccc2CO[C@H]1CN(C)C(=O)Oc1ccccc1,inactive: 1.01

row,Compound,relative growth
1,CNC(Cc1c[nH]c2ccccc12)C(=O)O (stereo unspecified),inactive: 1.07
2,CCOP(=S)(OCC)Oc1cc(C)nc(C(C)C)n1,inactive: 1.12
3,CC(C)(C)[C@]1(O)C[C@@H]2OC(=O)C[C@@]23C(=O)O[C@@H]2OC(=O)[C@H](O)[C@]213,inactive: 0.998
4,CN1CCN(c2nc(=O)c3c([nH]2)CCCC3)CC1,inactive: 1
5,N[C@@H](Cn1oc(=O)[nH]c1=O)C(=O)O,inactive: 1.03
6,CC(=O)OC1CC2(C)C(c3ccoc3)CC3OC32C2(C)C(=O)C(O)=C3C(C)(C)C(=O)C=CC3(C)C12 (stereo unspecified),inactive: 1.06
7,O=C(c1ccco1)N1[C@@H]2CC[C@H]1CNC2,inactive: 1.01
8,Cc1cc(C(=O)N2CC[C@H]3[C@@H]2CCN3C)no1,inactive: 1.02
9,N[C@H]1CCCN(Cc2cccnc2)C1,inactive: 1.03
10,CCCCCC1C(=O)OC(C)C(NC(=O)c2cccc(NC=O)c2O)C(=O)OC(C)C1OC(=O)CC(C)C (stereo unspecified) [ANTIMYCIN A (A1 shown)],inactive: 0.849
11,O=C1CC[C@]2(CCCN(Cc3cnc[nH]3)C2)N1,inactive: 1.02
12,C#CC1(O)C=CC2C3CCC4=CC(=O)CCC4C3CCC21CC (stereo unspecified),inactive: 1.04
13,CN[C@@H]1[C@@H](O)[C@@H](O[C@@H]2[C@H](O)[C@@H](O[C@H]3O[C@H]([C@@H](C)O)[C@@H](O)[C@H](O)[C@H]3N)[C@H](N)C[C@@H]2N)OC[C@]1(C)O,inactive: 0.484
14,c1ccc2c(c1)Nc1ccccc1S2,inactive: 0.886
15,CCN1CCN(c2nc(=O)cc(C)[nH]2)CC1,inactive: 1.01
16,[N-]=[N+]=NCc1ccccc1C[C@@]1(C(=O)NCCN2CCOCC2)N=C(c2ccc(OCCCO)cc2)O[C@@H]1c1ccccc1N=[N+]=[N-],inactive: 0.969
17,O=C1CCN(C(=O)C2CCC2)CC1,inactive: 0.985
18,C=CCOC(Cn1ccnc1)c1ccc(Cl)cc1Cl.O=S(=O)(O)O (stereo unspecified),inactive: 0.797
19,NC1(Cc2ccc(Cl)cc2)CC1,inactive: 0.969
20,OCCN1CC2(CCN(c3nccs3)C2)C1,inactive: 0.999
21,N#Cc1nn(-c2c(Cl)cc(C(F)(F)F)cc2Cl)c(N)c1S(=O)C(F)(F)F (stereo unspecified),inactive: 0.875
22,CC12CCC3C(CCC45OC4C(O)=C(C#N)CC35C)C1CCC2O (stereo unspecified),inactive: 0.865
23,CC(=O)OCC1=C(C(=O)O)N2C(=O)[C@@H](N)[C@H]2SC1,inactive: 1.01

row,Compound,relative growth
1,C[C@@H]1CN([C@@H](C)CO)C(=O)CCCn2cc(nn2)CO[C@H]1CN(C)C(=O)Oc1cccc2ccccc12,inactive: 1
2,C=C(C)[C@@H]1[C@H]2OC(=O)[C@@H]1[C@]1(O)C[C@H]3O[C@]34C(=O)O[C@H]2[C@]14C,inactive: 0.975
3,CC(=O)O[C@H]1C(=O)[C@]2(C)[C@@H](O)C[C@H]3OC[C@@]3(OC(C)=O)[C@@H]2[C@H](OC(=O)c2ccccc2)[C@]2(O)C[C@H](O)C(C)=C1C2(C)C,inactive: 0.994
4,C[C@]12C(=O)OC(=O)[C@]1(C)[C@H]1CC[C@H]2O1,inactive: 0.97
5,CC1OC(OC2CCC3(C=O)C4CCC5(C)C(C6=CC(=O)OC6)CCC5(O)C4CCC3(O)C2)C(O)C(O)C1O (stereo unspecified),inactive: 1.15
6,C[C@H]1CN([C@@H](C)CO)C(=O)CCCn2cc(nn2)CO[C@H]1CN(C)C(=O)Oc1cccc2ccccc12,inactive: 1.01
7,S=C1NCCN1,inactive: 0.972
8,CC(=O)[C@]12[C@@H]3CC=C[C@H]1N2CC3 (stereo partly specified),inactive: 0.988
9,COc1cc2c(cc1O)CCNC2C (stereo unspecified),inactive: 1.15
10,O=C(NCc1ccccc1)[C@H]1C[C@H]2CNC[C@H]1O2,inactive: 1.03
11,C[C@@H]1CC[C@@]2(OC1)O[C@H]1C[C@H]3[C@@H]4CC=C5C[C@@H](O[C@@H]6O[C@H](CO)[C@@H](O[C@@H]7O[C@@H](C)[C@H](O)[C@@H](O)[C@H]7O)[C@H](O)[C@H]6O[C@@H]6O[C@@H](C)[C@H](O)[C@@H](O)[C@H]6O)CC[C@]5(C)[C@H]4CC[C@]3(C)[C@H]1[C@@H]2C,inactive: 0.913
12,c1nc(N2CCN3CCC[C@H]3C2)c2[nH]cnc2n1,inactive: 0.977
13,CCOC1OC2OC3(C)CCC4C(C)CCC(C1C)C24OO3 (stereo unspecified),inactive: 1.09
14,CNC(=O)CSP(=S)(OC)OC,inactive: 1.07
15,CNC(=O)CN1CCOCC12CCN(c1cc(OC)ncn1)CC2,inactive: 1.02
16,CNC(=O)[C@@H]1COC[C@@H]2CN(CC(C)C)C[C@@H]21,inactive: 1
17,COCCCNC(=O)[C@]1(Cc2ccccc2N=[N+]=[N-])N=C(c2ccc(OCCCO)cc2)O[C@@H]1c1ccccc1N=[N+]=[N-],inactive: 0.96
18,CC(C)(C)[C@]1(O)C[C@@H]2OC(=O)C[C@]23C(=O)O[C@@H]2OC(=O)[C@H](O)[C@]231,inactive: 0.998
19,[N-]=[N+]=NCC(=O)Nc1ccon1,inactive: 0.986
20,CC(C)N(CCC(C(N)=O)(c1ccccc1)c1ccccn1)C(C)C.O=P(O)(O)O (stereo unspecified),inactive: 0.992
21,Cc1ccc(C2(CN)CCCCC2)cc1,inactive: 0.924
22,COc1ccc(C2(CN)CCOCC2)cc1,inactive: 1.02
23,Cc1o[nH]c(=O)c1C[C@H](N)C(=O)O,inactive: 0.995

row,Compound,relative growth
1,O=C([C@H]1CCCO1)N1CCCN2CCC[C@H]2C1,inactive: 0.999
2,C[C@]12CC[C@H](Cl)C[C@@H]1CC[C@@H]1[C@@H]2CC[C@]2(C)C(=O)CC[C@@H]12,inactive: 1
3,CC(C)C[C@@H]1C(=O)N2CCC[C@@H]2[C@]2(O)O[C@@](NC(=O)[C@@H]3C=C4c5cccc6[nH]c(Br)c(c56)C[C@@H]4N(C)C3)(C(C)C)C(=O)N12,inactive: 1.02
4,NCCNC[C@@H](N)CCCNC(N)=N[N+](=O)[O-].O=CC(F)(F)F,inactive: 1.02
5,Cc1nnc([C@H]2CCCNC2)o1,inactive: 0.969
6,C[C@@H]1CN([C@@H](C)CO)C(=O)CCCn2nncc2CO[C@H]1CN(C)C(=O)Oc1cccc2ccccc12,inactive: 1
7,CCC1CN2CCc3cc(OC)c(OC)cc3C2CC1CC1NCCc2cc(OC)c(OC)cc21.Cl.Cl (stereo unspecified),inactive: 1.19
8,CCNC(=O)[C@H]1O[C@@H](n2cnc3c(N)ncnc32)[C@H](O)[C@@H]1O,inactive: 0.996
9,NCCc1c[nH]c2ccc(C(N)=O)cc12,inactive: 0.999
10,O=C(O)C=CCO,inactive: 0.994
11,O=C(O)C(Cl)Cl,inactive: 1.01
12,C1CC2(CCN1)OCCO2,inactive: 1.02
13,C=CCc1ccc2c(c1)OCO2,inactive: 1.08
14,COP(=O)(OC)C(O)C(Cl)(Cl)Cl (stereo unspecified),inactive: 0.874
15,O=C1NC(=S)NC(=O)C1c1ccccc1,inactive: 0.959
16,O=[N+]([O-])c1ccc2c3c(cccc13)CC2,inactive: 0.979
17,N[C@@]1(C(=O)O)CC[C@H](C(=O)O)C1,inactive: 0.999
18,COc1ccc(C[C@@H](N)c2ccc(C)cn2)cc1OC,inactive: 0.941
19,NC(=N[N+](=O)[O-])NCCC[C@H](N)C(=O)O,inactive: 0.98
20,CP(=O)(O)C1=CCNCC1,inactive: 1.01
21,O=C1NC(=O)C(C2(O)C(=O)c3ccccc3C2=O)C(=O)N1,inactive: 0.908
22,Cc1ccc(OC(=O)N(C)C[C@@H]2OCc3ccccc3-c3c(n(C)c4ccccc34)C(=O)N([C@@H](C)CO)C[C@H]2C)cc1,inactive: 1.04

# Source: the supplement of paper PMC9446081
